Source: the RNAGym collection of RNA variant scans (doi:10.7554/elife.90254)
Read counts are not given, so values of variants with three or more changes are uncertain.

B1: LINE1-mini (parent)
chain: GGCAGAGCUCAACACAGCGUGGCAAAGUGGCUGUGGCUAGACUGCC

Variants of: B1
Assay: self-cleavage, relative activity (ratio to wild type); higher = more cleavage; in vitro, sequencing; the parent is a self-cleaving ribozyme

Row | Variant | self-cleavage
1 | GGCAUAGAUCAAGACAGCGUGGAAAAGUGGCUGUGGCUAGAUUGCC [G5U C8A C13G C23A C42U] | 0.13
2 | GGCAUAGAUCAACACAGCGUGGCAAAGUGGCUGUGGCUAGACUGCU [G5U C8A C46U] | 0.26
3 | GGCAUAGCUCAACACAGCGUGGCAUGGUGGCUGUGGAUAGACUGUU [G5U A25U A26G C37A C45U C46U] | 0.03
4 | GGCAUAGCUCAACACAGCGUGGCACAGUGGCAUUGGCUAGACUGCC [G5U A25C U32A G33U] | 0
5 | GGCAUAGAUCAACACAGCUUGGCAAAGUGUCUGUGGUUAGACUGCC [G5U C8A G19U G30U C37U] | 0.18
6 | GGCAUAGGUCAACACGGCGUGGCGAAGUGGCUGUGGCUAGACAGCC [G5U C8G A16G A24G U43A] | 0.15
7 | GGCAUAGAUCAACAAAGCGUGGCAAAGUGGCUGUGGCUAGACUGAC [G5U C8A C15A C45A] | 0.4
8 | GGCAUAGCUCAACACAGCGUGGCAAUGUGGCUGUGGCUAGACUUCC [G5U A26U G44U] | 0.04
9 | GGCAUAGCUCAACACAGCGUGGCAACGUGGCUGUGACUAGAAUGCC [G5U A26C G36A C42A] | 0.11
10 | GGCAUAGCUCAACACAGCGUGGCUAAGUGGUUGUGGCUAGACUGCC [G5U A24U C31U] | 0.08
11 | GGCAUAGGUCAUCUCAGCGUGACAAAGUGGCUGUGGCUAGACUGCC [G5U C8G A12U A14U G22A] | 0.01
12 | GGCAUAGGUCAACACAGAGUUGCAAAGUGGCUGUGGCUAGAAUGCC [G5U C8G C18A G21U C42A] | 0.13
13 | GGCAUAGGUCAACACACCGAGGUAAAGUGGCUGUGGCUGGACUGCC [G5U C8G G17C U20A C23U A39G] | 0.04
14 | GGCAUAGGUCAACACAGCGUGGCAUAGUGAUUGUGGCUAGUCUGCC [G5U C8G A25U G30A C31U A41U] | 0.14
15 | GGCAUAGCUCAACACAGCGUGGCAAAGUGGCUGUGGCUCGACUACC [G5U A39C G44A] | 0.03
16 | GGCAUAGCUCAACACAGCGUGGCAACGUGGCUGUGGCUAGACUGCU [G5U A26C C46U] | 0.03
17 | GGCAUAGCUCAACACAGCGUGGCAGAGUUGCUGGGGCUAGACUGCC [G5U A25G G29U U34G] | 0
18 | GGCAUAGGUCAACACAGCGGGGCAAAGUGGCUGUGGCUAGACUGCC [G5U C8G U20G] | 0.05
19 | GGCAUAGAUCAACACAGCGGGGUAAAGUGGCUGUGGGUAGACUGCC [G5U C8A U20G C23U C37G] | 0.54

Row | Variant | self-cleavage
20 | GGCAUAGAUCAUCACAGCGUGGCAUAGUGGCUGUGGCAAGACUGCC [G5U C8A A12U A25U U38A] | 0.13
21 | GGCAUAGGUCAACACAGCGUUGCAAAGUGGCUGUAGCUAGACUGCC [G5U C8G G21U G35A] | 0.18
22 | GGCAUAGGUCAACACAGCGAGGCAAAGUGGCUAUGGCUUGCCUGCC [G5U C8G U20A G33A A39U A41C] | 0.02
23 | GGCAUAGCUCAACACAGCGUGGCAUAGUGGCUGUGGCUAGACUGCG [G5U A25U C46G] | 0.12
24 | GGCAUAGCUCAACACAGCGUGGCAAGGUGGAUGAGGCUAGCCUGCA [G5U A26G C31A U34A A41C C46A] | 0
25 | GGCAUAGCUCAACACAGCGUGGCAACGUGGCUGUGGAUAGACUGCC [G5U A26C C37A] | 0.1
26 | GGCAUAGUUAAACACAGCGUGGCAAAGUGGCUGUGGCUAGACUGCC [G5U C8U C10A] | 0.01
27 | GGCAUAGCUCAACACAGCGUGGCAACGUCGCUGUGGCUAGACUGCA [G5U A26C G29C C46A] | 0.05
28 | GGCAUAGCUCAACACAGCGUGGCACAGUGGCUGUGACUAGACUGCC [G5U A25C G36A] | 0.02
29 | GGCAUAGCUCAACACAGCGUGGCAUAGUGGCUGUGGCUAGACUGGC [G5U A25U C45G] | 0.05
30 | GGCAUAGCUCAACACAGCGUGGCAUACUGGCUGUGGCUAGACUGCC [G5U A25U G27C] | 0.01
31 | GGCAUAGGUCGACACAGCGUGGCAAAGUGGCUUUGCCGGGACUGCC [G5U C8G A11G G33U G36C U38G A39G] | 0
32 | GGCAUAGAUCGACGCAGCGUGGCAAAGUGGCUGUGGCUAGACUGCC [G5U C8A A11G A14G] | 0.03
33 | GGCAUAGAUCAACACAGCGUUGCAAAGUUGCUGUGGCUAGACUGCC [G5U C8A G21U G29U] | 0.07
34 | GGCAUAGCUCAACACAGCGUGGCAAGGUGGCUGCGGCUAGACUGCC [G5U A26G U34C] | 0.05
35 | GGCAUAGCUCAACACAGCGUGGCAAGGUGGCUGUUGCUAGUCUGCC [G5U A26G G35U A41U] | 0.12
36 | GGCAUAGAUGAACACAGCGUGGCAAAGUGGCUGUGGCUAGACUGCC [G5U C8A C10G] | 0.02
37 | GGCAUAGAUCAACCCAGCGUGGCAAAGGGCCUGAGGCUAGACUGCC [G5U C8A A14C U28G G30C U34A] | 0.04
38 | GGCAUAGGUCAACACACCGUGGCAAAGUGGCUGUAUCUAGACUGCC [G5U C8G G17C G35A G36U] | 0.09

Row | Variant | self-cleavage
39 | GGCAUAGCUCAACACAGCGUGGCAUAGUGGUUGUGGCUAGACUGCC [G5U A25U C31U] | 0.04
40 | GGCAUAGGUCAACACAGCGUGGCAAAGUGGCUGUGGAUAGACAGCC [G5U C8G C37A U43A] | 0.06
41 | GGCAUAGCUCAACACAGCGUGGCAAUGUUGCUGUGGCUAGGCUGCC [G5U A26U G29U A41G] | 0.04
42 | GGCAUAGCUCAACACAGCGUGGCACAGUGGCUGAGGCUAGACCGCC [G5U A25C U34A U43C] | 0.04
43 | GGCAUAGAUUAACACAGCGUGGCAAAGUGGCUAUGGCUAUACUGCC [G5U C8A C10U G33A G40U] | 0.05
44 | GGCAUAGGUCUACACAGCGUGGCAAAGUGGCUAUGGCUAGACUGCC [G5U C8G A11U G33A] | 0.03
45 | GGCAUAGCUCAACACAGCGUGGCAUGGUGGCUGUGGCUAUACUGCC [G5U A25U A26G G40U] | 0.12
46 | GGCAUAGCUCAACACAGCGUGGCAUAGUGGCUGUGGCUAAACUGCC [G5U A25U G40A] | 0.1
47 | GGCAUAGGUCAACACAGCGUGGCAACGUGGCUGUGGCUGGGCUGCC [G5U C8G A26C A39G A41G] | 0
48 | GGCAUAGCUCAACACAGCGUGGCAUAGUGGCCUUGGCUAGACUGCC [G5U A25U U32C G33U] | 0.05
49 | GGCAUAGGUCAAGACAGCGUGGCAAAGUGGCUGUGGCUAGACUGCC [G5U C8G C13G] | 0.03
50 | GGCAUAGAUCAAGUCAUCGUUGCAAAGUGGCUGUGGCUAGGCUGCC [G5U C8A C13G A14U G17U G21U A41G] | 0.02
51 | GGCAUAGCUCAACACAGCGUGGCUAAGUGGCAGUGGCUAGACUGCC [G5U A24U U32A] | 0.09
52 | GGCAUAGCUCAACACAGCGUGGCUAAGUGGCUGUGGCUAAACUGCC [G5U A24U G40A] | 0.06
53 | GGCAUAGGUCAACACAGCGUGGCAAAGUGGCUGUGGCUAGACUUCC [G5U C8G G44U] | 0.09
54 | GGCAUAGCUCAACACAGCGUGGCAAAGUGGCUGUGGCUCGACUGGC [G5U A39C C45G] | 0.02
55 | GGCAUAGGUCAACACAGCGUGGCAAAGUGUCUGCGCCUAGACUGCG [G5U C8G G30U U34C G36C C46G] | 0.02
56 | GGCAUAGCUCAACACAGCGUGGCAAGGGGGCUGUGGCCAGACUGCC [G5U A26G U28G U38C] | 0.06
